According to the supplement of paper PMC3334620:
The full ranking holds about 33,000 sequences; the median of “E-score (-0.5 to 0.5)” is about -0.012, and the highest 2% start at about 0.29. Some of the results follow.

Target: T1, Ybr033w (UniProt P38073)
T1 sequence: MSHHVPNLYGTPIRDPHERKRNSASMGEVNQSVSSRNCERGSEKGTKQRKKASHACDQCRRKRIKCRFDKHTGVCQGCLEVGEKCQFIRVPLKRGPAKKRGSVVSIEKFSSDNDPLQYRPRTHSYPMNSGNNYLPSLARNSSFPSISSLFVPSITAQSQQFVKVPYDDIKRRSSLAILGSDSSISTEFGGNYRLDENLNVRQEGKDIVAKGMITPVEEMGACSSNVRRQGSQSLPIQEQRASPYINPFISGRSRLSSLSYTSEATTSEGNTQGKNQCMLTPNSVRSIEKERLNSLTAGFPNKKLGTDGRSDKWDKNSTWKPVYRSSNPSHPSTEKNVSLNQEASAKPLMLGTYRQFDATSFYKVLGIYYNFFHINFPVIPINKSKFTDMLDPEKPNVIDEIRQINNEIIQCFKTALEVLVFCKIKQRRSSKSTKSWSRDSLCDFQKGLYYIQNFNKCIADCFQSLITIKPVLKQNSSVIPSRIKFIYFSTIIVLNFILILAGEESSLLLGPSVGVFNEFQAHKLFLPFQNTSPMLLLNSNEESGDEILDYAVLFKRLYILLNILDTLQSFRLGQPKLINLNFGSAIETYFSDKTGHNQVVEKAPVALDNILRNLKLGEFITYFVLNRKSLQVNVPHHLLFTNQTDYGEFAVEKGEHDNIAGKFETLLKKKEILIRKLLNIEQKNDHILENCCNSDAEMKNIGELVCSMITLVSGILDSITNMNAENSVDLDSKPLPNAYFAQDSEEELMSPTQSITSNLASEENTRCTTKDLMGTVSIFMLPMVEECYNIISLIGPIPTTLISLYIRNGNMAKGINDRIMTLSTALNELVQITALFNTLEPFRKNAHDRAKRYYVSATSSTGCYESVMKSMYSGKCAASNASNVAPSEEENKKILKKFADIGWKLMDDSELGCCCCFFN
Experiment: PBM E-score (8-mer binding enrichment) (E-score (-0.5 to 0.5)); higher = stronger / more preferred TF binding; most listed sequences are background and not binding sites
Conditions: protein concentration: 200 nM; construct: GST-full length
In short: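 E-scores (a modified Wilcoxon-Mann-Whitney statistic) were assigned by the Universal PBM Analysis Suite to every ungapped eight-base word pooled with its reverse complement. The input came from universal all-10-mer Agilent arrays made double-stranded by primer extension and probed with GST-tagged yeast transcription factors at about 100-200 nM. Fluorescent anti-GST detected bound protein, and masliner normalised the scans.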

Sequence	PBM E-score
ACCGCTCG	-0.0768
CTAGCTAA	0.064
ATTGGGTC	-0.0771
ATTTCTAA	0.0907
AGCGCGAC	0.00346
CCCAGAAC	-0.0921
AATCCTAC	0.0522
ATTCGGCA	0.0438
AGTCCAGC	-0.114
CATCAAGC	0.0807
TCGTATCA	0.142
GAGCGCAA	-0.0711
GCGGGTTA	0.0659
CCGCGAGA	-0.255
CGAGTCAC	-0.136
CGTTTGAC	0.0667
AAATTATC	0.418
AGATTGAC	0.0305
GTGTAGGA	0.0894
GACGTAAC	0.0557
GAAGGATA	0.0784
ACAGGCGC	-0.301

Sequence	PBM E-score
AGCAGAAG	-0.0294
CACGCGAA	-0.0782
AATCTGCA	0.00952
CACAAGTG	-0.0893
GTGTATGA	-0.114
ACGGTTAA	0.0249
ATGATCGG	-0.0454
ATTTATGA	0.206
ATCCTTTA	0.176
AGAGGTAT	0.163
CACTATCA	0.101
TCTTTGAA	0.214
GAACAAAA	0.217
AACCAAAA	0.182
CAGTTCAA	0.0688
CCCACATA	-0.0626
ACCCAGGA	-0.0663
ATTTCTAG	0.241
CCAGCACA	-0.0703
CGCTCCGC	-0.132
GTAGTGAA	0.0398
TAGGCTAA	0.0975

Sequence	PBM E-score
CCGAATAG	0.0196
ACCTAGGC	-0.129
CATCAGTC	-0.196
ACGTGGAT	0.00577
ACCCCAAC	-0.0304
ACGCAGTG	-0.224
CCACACTC	-0.0722
ACTCTGCT	-0.0237
ATGCGAGC	-0.0162
ATACAAAA	0.311
ACACTTTC	-0.0624
GCACGTAC	-0.215
ACAAAGAC	0.0319
CTCTAAGC	-0.00489
GCTGTGTA	-0.00292
CATAGGGA	0.0585
CCCCCTCA	-0.359
AGTTACTC	0.14
ACTGTGTA	0.0683
ATATTTTG	0.234
ACGCTATA	-0.127
CCTTTTAG	-0.0761

Sequence	PBM E-score
AAATTGAC	0.108
ATATATAA	0.332
ATGTCTCA	0.0261
CCCGTATA	-0.0353
TCCTACGA	-0.156
TTCCCGAA	0.25
AGTGGGGA	-0.155
AAGCTCTC	-0.268
ACATTATC	0.219
CTAGGCAG	-0.0666
AATTCCTA	0.223
GAGTCACA	-0.0932
ACACCGGT	-0.173
ACATGGAA	-0.0243
CCACAACA	0.141
CGACCAGC	-0.0522
ACCGGGAT	-0.0699
AGTCATAC	-0.0136
ACCCTACG	-0.122
CGTTCCGA	-0.0534
GCACATCC	0.015
GGGAGGCA	-0.291

Sequence	PBM E-score
ATCCTCTC	-0.0385
GTCGCAAA	0.142
CGTACCCC	-0.105
AGGCTGTA	0.0666
ACAAAGAT	0.258
ACAATATA	0.264
CTCCAGTA	0.109
CTATGCAA	0.0892
CGCTCCTC	-0.284
ACTGCCAT	0.00233
TAACCAGA	0.0654
ATGTACAA	0.1
ACGGTACC	-0.0481
TAATTGAA	0.0974
CGAGATCG	-0.153
GATCCCGC	0.0311
AATCCCAT	0.0765
CCAGCGCC	-0.136
AGACGAAA	0.0293
AAGATGCA	0.194
CCGAGTCC	-0.136
